Test results from patent US20010044437A1, “Methods for reducing uric acid levels” (priority 2000, published 2001).
Further values from the same series stand in other lists.

System: serum uric acid
Test: Serum uric acid during 28-day once-daily oral dosing, placebo-controlled study in 48 subjects (Example 34)
Assay type: in vivo, human
Procedure: In another study, 48 subjects were divided into four groups, A, B, C and D, and administered the noted amount of the compound of Example 3. Each group was composed of 12 subjects of whom 9 received the compound and 3 received placebo. The non-placebo members of group A received 50 mg of compound, administered orally once a day for 28 days as a single 50 mg tablet. The non-placebo members of group B received 200 mg of compound administered orally once a day for 28 days as a single 200 mg tablet. The non-placebo members of group C received 500 mg of compound administered orally once a day for 28 days as two 50 mg tablets and two 200 mg tablets. The non-placebo members of group D received 800 mg of compound administered orally once a day for 28 days as four 200 mg tablets. The 3 placebo members of each group, received an amount of placebo, as a tablet, equivalent to the amount of test compound—50 mg placebo for group A, 200 mg placebo for group B, 500 mg placebo for group C and 800 mg placebo for group D. Each subject received a single dose of either compound or placebo for 28 days. The subjects were confined at the clinical site beginning the day before dose administration until 72 hours after the final dose administration on Day 28 and returned for an outpatient visit on Day 35.
Uric acid levels were measured prior to beginning the study (screening), on the day immediately prior to commencement of the study (day-1), and then as noted in the table. Hours indicates the time since the last dose was administered. For example, Day 7, 0 hour indicates the time the serum uric acid level at the time the dose was administered and Day 7, 2 hour indicates the uric acid level two hours after the adminstration that day. Further, the Day 30, 60 hour level is the serum uric acid level measured 60 hours (on Day 30) after the last dose was administered on Day 28. The uric acid levels are presented in mg/dL as a mean of all subjects in each group.

## O=C(O)Cn1cc(Cc2nc3c(F)c(F)cc(F)c3s2)c2ccccc21 [Example 3, 3-(4,5,7-Trifluorobenzothiazol-2-yl)methyl-indole-N-acetic Acid]
Group B 200 mg orally once a day, Day 34 144 Hour after last dose on Day 28
  Uric Acid Level (mean of all subjects in each group): 4.66 mg/dL
Group B 200 mg orally once a day, Day 35 (last dose Day 28)
  Uric Acid Level (mean of all subjects in each group): 5.03 mg/dL
Group B 200 mg orally once a day, Day-1 (before dosing)
  Uric Acid Level (mean of all subjects in each group): 5.16 mg/dL
Group B 200 mg orally once a day, Screening (before dosing)
  Uric Acid Level (mean of all subjects in each group): 5.51 mg/dL
Group C 500 mg orally once a day, Day 14 0 Hour
  Uric Acid Level (mean of all subjects in each group): 2.10 mg/dL
Group C 500 mg orally once a day, Day 14 0.5 Hour
  Uric Acid Level (mean of all subjects in each group): 2.10 mg/dL
Group C 500 mg orally once a day, Day 14 1 Hour
  Uric Acid Level (mean of all subjects in each group): 2.02 mg/dL
Group C 500 mg orally once a day, Day 14 2 Hour
  Uric Acid Level (mean of all subjects in each group): 1.92 mg/dL
Group C 500 mg orally once a day, Day 14 3 Hour
  Uric Acid Level (mean of all subjects in each group): 1.86 mg/dL
Group C 500 mg orally once a day, Day 14 4 Hour
  Uric Acid Level (mean of all subjects in each group): 1.82 mg/dL
Group C 500 mg orally once a day, Day 14 6 Hour
  Uric Acid Level (mean of all subjects in each group): 2.03 mg/dL
Group C 500 mg orally once a day, Day 14 8 Hour
  Uric Acid Level (mean of all subjects in each group): 1.96 mg/dL
Group C 500 mg orally once a day, Day 14 10 Hour
  Uric Acid Level (mean of all subjects in each group): 1.86 mg/dL
Group C 500 mg orally once a day, Day 14 12 Hour
  Uric Acid Level (mean of all subjects in each group): 1.78 mg/dL
Group C 500 mg orally once a day, Day 14 16 Hour
  Uric Acid Level (mean of all subjects in each group): 1.73 mg/dL
Group C 500 mg orally once a day, Day 14 24 Hour
  Uric Acid Level (mean of all subjects in each group): 2.13 mg/dL
Group C 500 mg orally once a day, Day 21 0 Hour
  Uric Acid Level (mean of all subjects in each group): 2.32 mg/dL
Group C 500 mg orally once a day, Day 28 0 Hour
  Uric Acid Level (mean of all subjects in each group): 2.27 mg/dL
Group C 500 mg orally once a day, Day 28 0.05 Hour
  Uric Acid Level (mean of all subjects in each group): 2.28 mg/dL
Group C 500 mg orally once a day, Day 28 1 Hour
  Uric Acid Level (mean of all subjects in each group): 2.26 mg/dL
Group C 500 mg orally once a day, Day 28 2 Hour
  Uric Acid Level (mean of all subjects in each group): 2.18 mg/dL
Group C 500 mg orally once a day, Day 28 3 Hour
  Uric Acid Level (mean of all subjects in each group): 2.09 mg/dL
Group C 500 mg orally once a day, Day 28 4 Hour
  Uric Acid Level (mean of all subjects in each group): 2.04 mg/dL
Group C 500 mg orally once a day, Day 28 6 Hour
  Uric Acid Level (mean of all subjects in each group): 2.36 mg/dL
Group C 500 mg orally once a day, Day 28 8 Hour
  Uric Acid Level (mean of all subjects in each group): 2.23 mg/dL
Group C 500 mg orally once a day, Day 28 10 Hour
  Uric Acid Level (mean of all subjects in each group): 2.32 mg/dL
Group C 500 mg orally once a day, Day 28 12 Hour
  Uric Acid Level (mean of all subjects in each group): 2.20 mg/dL
Group C 500 mg orally once a day, Day 28 16 Hour
  Uric Acid Level (mean of all subjects in each group): 1.94 mg/dL
Group C 500 mg orally once a day, Day 28 24 Hour
  Uric Acid Level (mean of all subjects in each group): 2.36 mg/dL
Group C 500 mg orally once a day, Day 29 48 Hour after last dose on Day 28
  Uric Acid Level (mean of all subjects in each group): 2.56 mg/dL
Group C 500 mg orally once a day, Day 30 60 Hour after last dose on Day 28
  Uric Acid Level (mean of all subjects in each group): 2.87 mg/dL
Group C 500 mg orally once a day, Day 31 72 Hour after last dose on Day 28
  Uric Acid Level (mean of all subjects in each group): 3.64 mg/dL
Group C 500 mg orally once a day, Day 32 96 Hour after last dose on Day 28
  Uric Acid Level (mean of all subjects in each group): 4.10 mg/dL
Group C 500 mg orally once a day, Day 33 120 Hour after last dose on Day 28
  Uric Acid Level (mean of all subjects in each group): 4.41 mg/dL
Group C 500 mg orally once a day, Day 34 144 Hour after last dose on Day 28
  Uric Acid Level (mean of all subjects in each group): 4.38 mg/dL
Group C 500 mg orally once a day, Day 35 (last dose Day 28)
  Uric Acid Level (mean of all subjects in each group): 4.63 mg/dL
Group D 800 mg orally once a day, Day 14 0 Hour
  Uric Acid Level (mean of all subjects in each group): 2.14 mg/dL
Group D 800 mg orally once a day, Day 14 0.5 Hour
  Uric Acid Level (mean of all subjects in each group): 2.11 mg/dL
Group D 800 mg orally once a day, Day 14 1 Hour
  Uric Acid Level (mean of all subjects in each group): 2.09 mg/dL
Group D 800 mg orally once a day, Day 14 2 Hour
  Uric Acid Level (mean of all subjects in each group): 1.98 mg/dL
Group D 800 mg orally once a day, Day 14 3 Hour
  Uric Acid Level (mean of all subjects in each group): 1.94 mg/dL
Group D 800 mg orally once a day, Day 14 4 Hour
  Uric Acid Level (mean of all subjects in each group): 1.91 mg/dL
Group D 800 mg orally once a day, Day 14 6 Hour
  Uric Acid Level (mean of all subjects in each group): 2.07 mg/dL
Group D 800 mg orally once a day, Day 14 8 Hour
  Uric Acid Level (mean of all subjects in each group): 1.97 mg/dL
Group D 800 mg orally once a day, Day 14 10 Hour
  Uric Acid Level (mean of all subjects in each group): 1.91 mg/dL
Group D 800 mg orally once a day, Day 14 12 Hour
  Uric Acid Level (mean of all subjects in each group): 1.78 mg/dL
Group D 800 mg orally once a day, Day 14 16 Hour
  Uric Acid Level (mean of all subjects in each group): 1.73 mg/dL
Group D 800 mg orally once a day, Day 14 24 Hour
  Uric Acid Level (mean of all subjects in each group): 2.35 mg/dL
Group D 800 mg orally once a day, Day 21 0 Hour
  Uric Acid Level (mean of all subjects in each group): 2.30 mg/dL
Group D 800 mg orally once a day, Day 28 0 Hour
  Uric Acid Level (mean of all subjects in each group): 2.60 mg/dL
Group D 800 mg orally once a day, Day 28 0.05 Hour
  Uric Acid Level (mean of all subjects in each group): 2.60 mg/dL
Group D 800 mg orally once a day, Day 28 1 Hour
  Uric Acid Level (mean of all subjects in each group): 2.51 mg/dL
Group D 800 mg orally once a day, Day 28 2 Hour
  Uric Acid Level (mean of all subjects in each group): 2.40 mg/dL
Group D 800 mg orally once a day, Day 28 3 Hour
  Uric Acid Level (mean of all subjects in each group): 2.29 mg/dL
Group D 800 mg orally once a day, Day 28 4 Hour
  Uric Acid Level (mean of all subjects in each group): 2.28 mg/dL
Group D 800 mg orally once a day, Day 28 6 Hour
  Uric Acid Level (mean of all subjects in each group): 2.45 mg/dL
Group D 800 mg orally once a day, Day 28 8 Hour
  Uric Acid Level (mean of all subjects in each group): 2.36 mg/dL
Group D 800 mg orally once a day, Day 28 10 Hour
  Uric Acid Level (mean of all subjects in each group): 2.34 mg/dL
Group D 800 mg orally once a day, Day 28 12 Hour
  Uric Acid Level (mean of all subjects in each group): 2.36 mg/dL
Group D 800 mg orally once a day, Day 28 16 Hour
  Uric Acid Level (mean of all subjects in each group): 2.00 mg/dL
Group D 800 mg orally once a day, Day 28 24 Hour
  Uric Acid Level (mean of all subjects in each group): 2.56 mg/dL
Group D 800 mg orally once a day, Day 29 36 Hour after last dose on Day 28
  Uric Acid Level (mean of all subjects in each group): 2.78 mg/dL
Group D 800 mg orally once a day, Day 29 48 Hour after last dose on Day 28
  Uric Acid Level (mean of all subjects in each group): 2.47 mg/dL
Group D 800 mg orally once a day, Day 30 60 Hour after last dose on Day 28
  Uric Acid Level (mean of all subjects in each group): 3.06 mg/dL
Group D 800 mg orally once a day, Day 31 72 Hour after last dose on Day 28
  Uric Acid Level (mean of all subjects in each group): 3.74 mg/dL
Group D 800 mg orally once a day, Day 32 96 Hour after last dose on Day 28
  Uric Acid Level (mean of all subjects in each group): 4.53 mg/dL
Group D 800 mg orally once a day, Day 33 120 Hour after last dose on Day 28
  Uric Acid Level (mean of all subjects in each group): 4.87 mg/dL
Group D 800 mg orally once a day, Day 34 144 Hour after last dose on Day 28
  Uric Acid Level (mean of all subjects in each group): 4.94 mg/dL
Group D 800 mg orally once a day, Day 35 (last dose Day 28)
  Uric Acid Level (mean of all subjects in each group): 5.04 mg/dL
